# Results taken from the RNAGym collection of RNA variant scans (doi:10.7554/elife.90254).
# The source gives no read counts; variants with many changes may rest on few reads.
# B1: LINE1-mini (parent)
# chain: GGCAGAGCUCAACACAGCGUGGCAAAGUGGCUGUGGCUAGACUGCC
# Variants of: B1
# Experiment: self-cleavage, relative activity (ratio to wild type); higher = more cleavage; in vitro, sequencing; the parent is a self-cleaving ribozyme
row,Variant,self-cleavage
1,A14C U38A C45A,0.02
2,A14C G22U C23U G29U,0.17
3,A14C G35C G36A,0.03
4,A14U A16C C45G,0.15
5,A14G G19A A39U A41U U43G,0.15
6,A14C G30U C42U U43G,0.02
7,A14G C15U A26G G44A,0.03
8,A14G C18A A25C U28A C45U,0.05
9,A14G C18A G27C,0.03
10,A14C G21A G30U G44U,0
11,A14C G35A G36U,0.18
12,A14C C15A A25U A26C U43A,0.11
13,A14C G17C C23A A25C G36A G44U C45G,0
14,A14C A24C C42A,0.02
15,A14G C15U G21A G27U U38A,0.34
16,A14G U28A C42G,0.06
17,A14G G21U G40A,0.04
18,A14G G21U A24U,0.26
19,A14C C18G G19A U20G G22A G27A,0.04
20,A14C G21U U28G C42U,0.06
21,A14C U34A U38C G44U,0.01
22,A14C C18G G19U,0.03
23,A14G G29A C31A A39C,0.08
24,A14G G33C G40U,0.02

row,Variant,self-cleavage
1,C13U U28G C31A,0.02
2,A14G C23U U28C,0.56
3,A14C A24G C31G C37A U43A,0.02
4,A14C C37A U38C A41U,0
5,A14G U32G G33A G44C,0.03
6,A14G G22A G36U,0.18
7,A14C G19U G30A,0.05
8,A14G G33C U34A,0.03
9,A14C A25U U34C A41C C46G,0.05
10,A14G C15A C42A,0.23
11,A14G C15A A39G,0.01
12,A14G A26C U32A,0
13,A14G G35A C45A C46G,0.05
14,A14C U32A G35U,0.01
15,A14G C18U G29C,0.11
16,A14G C23A G35U,0.06
17,A14U A16C G22A,0.05
18,A14G G29C U32A G33U,0.01
19,A14G G21C G22A G40C,0.05
20,A14C C15A C42A,0.06
21,A14C A39U C42U C46A,0.04
22,A14C G17U C18A,0.1
23,A14C C15G G19A C46U,0.03
24,A14C U32A G33C C37A G44A,0.02

row,Variant,self-cleavage
1,A14G A24G A25C G30U U32C,0.01
2,A14G U20A C31A U38C,0.01
3,A14C C23A C37U C42A,0.02
4,A14C A24U C31U U43C C46U,0.02
5,A14C C23U G35U C37U U38G,0.02
6,A14C C18A G33C,0.02
7,A14C G22C A25C,0.02
8,C13U U38A G44C,0.07
9,A14C C37A C46A,0.26
10,A14C A24G U43A,0.09
11,A14C A16C A25C,0.09
12,A14G A24U G27C C45U,0.11
13,A14C A16G G27A U34G,1.92
14,A14G G22U G27C,0.31
15,A14G U34C C45G,0.1
16,A14G G22U G29C C31U C42A C46A,0.03
17,A14U A16G C18U G19A C23U G33U A39C,0.02
18,A14C G19A G36C G44A,0.03
19,A14C G22U G30U C31G G35U,0.06
20,A14C G19C G30U,0.03
21,A14G A16G G27U,0.08
22,A14C U20G G35A,0.06
23,A14C A16C U34A C45U,0.09
24,A14G C15G G22C G29C U38A A41G C42A C45G,0.01

row,Variant,self-cleavage
1,A14G A39G A41G C46U,0.02
2,A14C G19C G27C C31A,0.01
3,A14G U20A C31G U38A G40C,0.02
4,A14C U34C C37U U38C,0.1
5,A14G C18U C37U G44U C45G,0.15
6,A14C G19C G27A G29U G44U,0.01
7,A14G G35U G44A,0.03
8,A14G G19U G21U C23U C31G A39G,0.01
9,A14G A16C A26C,0.03
10,A14C G30A C31A U32C,0.04
11,A14C A16U G22A A26G C37G,0
12,A14C C23G G30A,0.06
13,A14C G33A G44C,0.02
14,A14G U20A G30U C42U,0.04
15,A14G G33U A39C,0.05
16,A14C G19A G21C U28A C45A C46G,0.03
17,A14C C15U U20C,0.05
18,A14C G19C G21U,0.03
19,A14C C18U U32C,0.03
20,A14C C23U G44U,0.1
21,A14C C15A C23A G29C G44U,0.02
22,A14G G19C G29A C46U,0.07
23,A14G G36A G44A,0.1
24,A14C G19C G33A,0.03

row,Variant,self-cleavage
1,A14C G22C G33U A39G,0
2,A14C U32G G35A,0.06
3,A14G G40C C46G,0.01
4,A14C C31U G40U C46G,0.01
5,A14G G19U G33A U43C,0.03
6,A14G U32G G35C U43A,0.03
7,A14C G17U C42G,0.18
8,A14C C18A G22C,0.04
9,A14C A16C G27A U38C,0.04
10,A14C U20G U43C,0.13
11,C13U U32A U34G C37A U38A,0
12,A14C C23A G27U,0.1
13,A14G C37U C42U G44A,0.12
14,A14C G21U G30C,0.08
15,A14G C18A A25C A26G G27C G35C,0.02
16,A14G C23A A24U,0.34
17,A14C U20G G30C G33C,0.01
18,A14C A25U G36U G40A,0.07
19,A14C C18A G19A,0.04
20,A14G A24G G36A,0.07
21,A14C G17U C23G,0
22,A14C C15A G21U,0.01
23,A14G G17U C18A U34A,0.02
24,A14C G19C A24U,0.04

row,Variant,self-cleavage
1,A14G G17A C42A,0.12
2,A14C C18A G35C,0.05
3,A14C G19U G33C,0.04
4,A14C G19A G21U,0.07
5,A14G G33U C37U A41G C46G,0.03
6,A14C G17U A26U G33U U43A,0.06
7,A14G G19U G44C,0.12
8,A14G A25C G40C G44U,0.02
9,A14C C15U U28C C37A G40C,0.01
10,A14C G17U A25G G29A U38C,0.08
11,A14C U34G G40A,0
12,A14C A26U C45U,0.11
13,A14G G19C G27C G30C C42G,0.05
14,A14G A24C G29U G40C,0.01
15,A14G G17U U34A,0.2
16,A14C U34A G36C C37U,0.02
17,A14G G19U G22A,0.25
18,A14C C18U G33U U43C,0.01
19,A14G U20C G21U,0.28
20,A14G G22A G29C,0.12
21,A14G C18A A39G,0.56
22,A14G U28C U43A,0.08
23,A14G G35A A41C,0.01
24,A14C U20C G44A C45G,0.02

row,Variant,self-cleavage
1,A14C A16G A25G C31A,0.01
2,A14C A39U C45U,0.05
3,A14C A16U G40C G44C,0.03
4,A14G U20G G40U U43A,0.09
5,A14U A16C A24U U28C,0.13
6,A14G A25U C31U,0.02
7,A14G G19C G21U C31U C45A,0.11
8,A14G C15G G19A G36C A41U U43G C45G,0.02
9,A14C U20A A41U,0.04
10,A14G A25G C45A,0.06
11,A14C C18U G30A U34A A39G A41G,0
12,A14C G27U G30U,0.12
13,A14G G19U U43G,0.12
14,A14G U20A G22A U38C C46U,0.04
15,A14G G19A U32C C37G,0
16,A14C U20G G27C G30C,0.03
17,A14G U20G G36C,0.02
18,A14G A25C C37G,0.02
19,A14C C31G C37A C46G,0.01
20,A14C U20C C37A,0.03
21,C13U U34G C37U A41C,0.17
22,A14G C18A U28C G29U G30U,0.3
23,C13U U28A G36U G44C,0.05
